Data as given in patent publication US12448369B2 (Edgewise Therapeutics, Inc., priority 2023, dated 2025).
For at least one compound, name, drawing or mass did not settle the structure.

Legend:
[1] = system: Rabbit Psoas myofibrils (skeletal myosin ATPase); test: Myofibril ATPase assay, rabbit psoas (skeletal) myofibrils; type: biochemical; settings: rabbit psoas myofibrils
Protocol: (§1) Example 1. Myofibril ATPase Assay
(§2) Myofibril ATPase assays are known in the art to be useful in evaluating small molecules for the treatment of HCM and other cardiac indications. Myosin ATPase activity is assessed by using a coupled reaction system, in which ADP generated by the myosin ATPase function is coupled to the disappearance of NADH through the pyruvate kinase/lactate dehydrogenase (PK-LDH) system. ATPase activity produces ADP, which is used as a substrate for PK to produce pyruvate and regenerate ATP. The pyruvate is then used as a substrate by LDH to oxidize NADH to NAD+. The rate of the reaction is monitored through the time-dependent disappearance of NADH using absorbance at 340 nm, which, when the couple system is in stoichiometric excess, is directly correlated to the ATPase activity of the myosin. Inhibition of ATPase activity by the assayed compounds is indicated by a reduced rate of NADH loss, relative to vehicle-treated controls, over the experimental time window. Activation of ATPase activity by the assayed compounds is indicated by an increased rate of NADH loss, relative to vehicle-treated controls, over the experimental time window. Rabbit Psoas, Porcine atria, and Porcine ventricle are the primary sources of myofibril material.
(§3) Materials: The following stock solutions and reagents were used in the Myofibril ATPase Assay:
(§4) Stock Solutions of pCa buffer. Combine PIPES, CaCl2, and EGTA solutions with water. Adjust pH to 7.0 and bring final volume to 100 mL.
(§5) Buffer A & Buffer B. Prepare buffers A and B according to the table below.
(§6) Myofibril ATPase Assay Procedure: BSA, ATP, NADH, PEP, and DTT solutions were thawed at room temperature, then transferred to ice. Pellet-frozen myofibrils were transferred with approximately twice the required volume into a sufficiently large tube and capped. Myofibrils were thawed by rolling in a water bath for approximately 15 min at room temperature and cooled on ice. Buffers A and B were prepared by adjusting volumes as necessary for required number of wells and stored on ice. 0.5 μL of the compounds to be assayed were added into wells. 25 μL of Buffer A was dispensed into the wells, followed by 25 μL of Buffer B. The wells were measured for absorbance at 340 nm, using a kinetic protocol in which the wells are read every 1.5-2 min for 75 min. Assay data analysis was performed using a python script that filtered the raw data to retain those points falling between a starting and ending time and between a maximum and minimum absorbance, then used the filtered time-domain 340 nm absorbance data in each well to calculate a slope via linear regression analysis in units of mAU/min. Compound slopes were normalized between 100% and 0% activity, where 100% represented the slope of wells containing only compound vehicle, and fit to a 4-parameter logistic model. In addition to the fit parameters, the EC25% values were calculated, relative to the 100% normalized value. Additionally, the Y125 values were calculated for compounds that increased myosin ATP-ase activity. Fit parameters, calculated effective concentrations, filtered raw data, and calculated slopes were exported, in addition to compound-specific graphs of normalized ATPase activity versus concentration in μM. Each value reported in Table 5, Table 6, and Table 7 is either a Y75 value or a Y125 value. Values without a double cross sign, ‡, are Y75 values, which reflect the concentration required to reduce myosin ATP-ase activity by 25% (e.g., Y-axis activity value is 75% of initial value), relative to myosin ATP-ase activity in the absence of exogenous compound.
Skeletal Myofibril Isolation:
(§7) Myofibrils from various animals and tissue types were acquired from a variety of sources: rabbit psoas muscle was purchased from Pel-Freez Biologicals (Rogers, AR) and porcine cardiac muscle was purchased from Exemplar Genetics. All myofibrils were prepared using a method based upon those described in Herrmann et al. (1993) and summarized here. […]

[2] = system: Porcine atria myofibrils (atrial myosin ATPase); test: Myofibril ATPase assay, porcine atria myofibrils; type: biochemical; settings: porcine atria myofibrils
Protocol: as §1, §2, §3, §4, §5, §6, §7

[3] = biological target: T1, Porcine ventricle myofibrils (ventricular myosin ATPase) (Sus scrofa, UniProt P79293); test: Myofibril ATPase assay, porcine ventricle myofibrils; type: biochemical, porcine (Yucatan minipigs); settings: porcine ventricle myofibrils
T1 construct: Myofibrils from porcine cardiac muscle was isolated from the left ventricle of Yucatan minipigs; tissue Exemplar Genetics; host or cells: left ventricle of Yucatan minipigs, myofibrils prepared in house
Protocol: as §1, §2, §3, §4, §5, §6
Cardiac Myofibril Isolation:
Myofibrils from porcine cardiac muscle was isolated from the left ventricle of Yucatan minipigs. Myofibrils were prepared using a method based upon those described in Herrmann et al. (1993) and summarized here. […]

[4] = Y75 value (75% activity relative to no compound)

T1 sequence (P79293 whole entry): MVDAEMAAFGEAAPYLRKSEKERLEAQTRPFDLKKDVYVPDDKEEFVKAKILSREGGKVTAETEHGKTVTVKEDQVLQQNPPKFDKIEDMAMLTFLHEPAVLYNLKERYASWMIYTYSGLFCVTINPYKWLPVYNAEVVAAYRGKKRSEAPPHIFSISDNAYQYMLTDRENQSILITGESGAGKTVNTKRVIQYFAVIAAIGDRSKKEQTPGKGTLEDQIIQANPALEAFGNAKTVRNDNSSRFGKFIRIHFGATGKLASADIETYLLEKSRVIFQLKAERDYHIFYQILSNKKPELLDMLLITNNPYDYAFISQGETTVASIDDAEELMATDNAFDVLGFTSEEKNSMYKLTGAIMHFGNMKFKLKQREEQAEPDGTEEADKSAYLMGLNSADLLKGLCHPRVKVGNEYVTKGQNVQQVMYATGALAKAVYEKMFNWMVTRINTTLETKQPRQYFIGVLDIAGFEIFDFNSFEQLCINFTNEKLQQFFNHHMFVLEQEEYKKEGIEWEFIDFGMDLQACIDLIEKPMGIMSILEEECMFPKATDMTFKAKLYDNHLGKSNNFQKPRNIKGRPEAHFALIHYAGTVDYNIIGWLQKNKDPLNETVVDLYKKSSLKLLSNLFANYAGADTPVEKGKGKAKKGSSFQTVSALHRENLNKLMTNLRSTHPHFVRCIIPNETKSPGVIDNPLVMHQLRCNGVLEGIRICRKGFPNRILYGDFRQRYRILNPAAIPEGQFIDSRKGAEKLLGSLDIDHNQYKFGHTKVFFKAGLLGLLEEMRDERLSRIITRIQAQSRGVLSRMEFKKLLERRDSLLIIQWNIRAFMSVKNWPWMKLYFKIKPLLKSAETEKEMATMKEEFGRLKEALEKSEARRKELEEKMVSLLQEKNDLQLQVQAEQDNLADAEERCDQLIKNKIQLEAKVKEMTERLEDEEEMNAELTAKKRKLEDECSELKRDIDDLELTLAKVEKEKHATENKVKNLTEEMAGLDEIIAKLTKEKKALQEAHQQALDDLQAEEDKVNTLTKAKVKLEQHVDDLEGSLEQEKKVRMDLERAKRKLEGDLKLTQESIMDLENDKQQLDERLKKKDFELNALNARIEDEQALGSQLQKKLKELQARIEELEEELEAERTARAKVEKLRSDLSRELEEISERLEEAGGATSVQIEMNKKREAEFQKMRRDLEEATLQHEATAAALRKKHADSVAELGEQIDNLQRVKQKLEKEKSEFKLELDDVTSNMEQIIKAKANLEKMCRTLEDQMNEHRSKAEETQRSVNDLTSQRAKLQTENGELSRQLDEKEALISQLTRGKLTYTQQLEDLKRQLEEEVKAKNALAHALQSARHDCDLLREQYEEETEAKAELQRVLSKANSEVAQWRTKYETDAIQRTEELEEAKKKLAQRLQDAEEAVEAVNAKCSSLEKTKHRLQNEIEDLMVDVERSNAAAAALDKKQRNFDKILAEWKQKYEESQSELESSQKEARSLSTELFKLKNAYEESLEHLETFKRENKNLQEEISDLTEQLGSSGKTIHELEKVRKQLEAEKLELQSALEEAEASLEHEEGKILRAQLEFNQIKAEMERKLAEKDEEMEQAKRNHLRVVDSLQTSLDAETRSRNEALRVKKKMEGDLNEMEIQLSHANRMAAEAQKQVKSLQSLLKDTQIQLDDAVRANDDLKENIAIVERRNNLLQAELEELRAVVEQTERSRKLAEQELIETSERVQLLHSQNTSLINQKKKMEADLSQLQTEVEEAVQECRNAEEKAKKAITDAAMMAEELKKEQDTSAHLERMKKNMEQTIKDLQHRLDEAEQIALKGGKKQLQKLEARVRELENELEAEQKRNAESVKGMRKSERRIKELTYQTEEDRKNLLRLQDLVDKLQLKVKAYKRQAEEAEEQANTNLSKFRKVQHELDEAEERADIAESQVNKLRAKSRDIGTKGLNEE

Row | Compound | Skeletal EC25 ([1]; Y75 value (no ‡ mark)) | Atrial EC25 ([2]; Y75 value (no ‡ mark)) | Ventricular EC25 ([3]; Y75 value (no ‡ mark)) | Skeletal EC25 ([1]; Y75 value) | Atrial EC25 [2, 4] | Ventricular EC25 ([3]; Y75 value)
1 | C[C@H](NC(=O)C1(c2cc3c(F)c(F)ccc3[nH]c2=O)CC1)c1ccc(C#N)nn1 (single isomer, unassigned) [compound 4818] | 25.37 µM | 15.59 µM | 100.00 µM |  |  | 
2 | Cc1c(C(F)(F)C(=O)N[C@@H](C)c2nccc(C#N)n2)c(=O)[nH]c2ccc(F)c(F)c12 (single isomer, unassigned) [compound 2518] | 3.14 µM | 2.85 µM | 100.00 µM |  |  | 
3 | C[C@H](NC(=O)Cc1c(C(F)(F)F)c2nc(C(F)(F)F)ccc2[nH]c1=O)c1ccc(F)cc1F [compound 387] |  |  |  | 0.19 µM | 0.14 µM | 100.00 µM
4 | Cc1c(CC(=O)N[C@@H](C)c2cnc(C#N)nc2)c(=O)[nH]c2ccc(F)c(F)c12 [compound 1130] | 0.32 µM | 0.71 µM | 2.74 µM |  |  | 
5 | C[C@@H](NC(=O)C1(c2cc3c(F)c(F)ccc3[nH]c2=O)CC1)c1ccc(C#N)nn1 (single isomer, unassigned) [compound 4817] | 10.40 µM | 2.48 µM | 65.71 µM |  |  | 
6 | Cc1c(CC(=O)N[C@@H](C)c2ccc(C#N)cc2F)c(=O)[nH]c2cnc(C(F)(F)F)nc12 [compound 145] |  |  |  | 3.46 µM | 0.13 µM | 10.15 µM
7 | C[C@H](NC(=O)Cc1cc2cc(F)c(F)cc2[nH]c1=O)c1cnc(C#N)cn1 [compound 1067] | 10.01 µM | 5.67 µM | 31.71 µM |  |  | 
8 | Cc1c([C@H](C)C(=O)N[C@H](C)c2ccc(C#N)cc2F)c(=O)[nH]c2ccnc(C#N)c12 (single isomer, unassigned) [compound 180] |  |  |  | 28.17 µM | 100.00 µM | 100.00 µM
9 | Cc1c(CC(=O)N[C@@H](C)c2ccc(F)cc2F)c(=O)[nH]c2ccc(F)nc12 [compound 382] |  |  |  | 0.01 µM | 0.05 µM | 0.28 µM
10 | Cc1c(CC(=O)N[C@@H](CO)c2ccc(C#N)cc2F)c(=O)[nH]c2cnnc(C#N)c12 [compound 176] |  |  |  | 1.13 µM | 3.29 µM | 19.33 µM
11 | C[C@@H](NC(=O)Cc1c(C2CC2)c2c(F)c(F)ccc2[nH]c1=O)c1ncc(C#N)cn1 (single isomer, unassigned) [compound 2067] | 0.37 µM | 22.93 µM | 100.00 µM |  |  | 
12 | C[C@@H](NC(=O)Cc1cc2cc(F)ccc2[nH]c1=O)c1ccc(C#N)nn1 (single isomer, unassigned) [compound 2019] | 39.98 µM | 22.98 µM | 100.00 µM |  |  | 
13 | C[C@@H](NC(=O)Cc1cc2cc(F)c(F)cc2[nH]c1=O)c1cnc(C#N)cn1 [compound 1066] | 62.54 µM | 3.79 µM | 10.31 µM |  |  | 
14 | Cc1cc(C#N)cnc1[C@H](C)NC(=O)Cc1cc2c(C#N)nccc2[nH]c1=O [compound 477] |  |  |  | 1.78 µM | 1.23 µM | 2.64 µM
15 | Cc1c(CC(=O)N[C@H](C)c2cnc(C#N)nc2)c(=O)[nH]c2ccc(F)c(F)c12 [compound 1129] | 0.01 µM | 0.10 µM | 0.05 µM |  |  | 
